As usually defined, the % Inhibition is the relative decrease from the control value, in per cent.

Structures are written as SMILES. About 540 (0.36%) of roughly 150,000 compounds showed an effect of 50% or more. This is one part of the list.

This assay relates to Plasmodium falciparum. Nature of the assay: Primary screen in NF54 nanoGlo assay, in single point, at 2uM, 72h; a lower Z score goes with more inhibition. Format: functional, Erythrocyte. The settings on record: timepoint 72 hour.
On to `Cc1cc(N2CCC3(CC2)CN(CCN2CC[C@H](N(C)C)C2)C(=O)O3)nc(N)n1`, for which the “% Inhibition” value is on record as -6% and the Z score amounted to 0.94.
The like results for `O=C(NCc1nc2cc(F)ccc2[nH]1)C1CNCC(C(=O)N2CCOCC2)C1` (configuration not stated) were, in that order, -3% and 0.48.
As to `Cn1ccnc(N2CCC(NCc3cccc4cnccc34)CC2)c1=O`, the “% Inhibition” value is on record as 7% and the Z score was -1.42.
With `c1ccc2c(N3CCN(c4cc(NC5CC5)ncn4)CC3)cncc2c1`, the “% Inhibition” value is given as -4% and the Z score is listed as 0.75.
`COc1ccc2[nH]c(CCN(C)c3cc(-c4nc(C)no4)ccn3)nc2c1`: the “% Inhibition” value is -3% and the Z score is recorded as 0.56.
The corresponding values for `Cc1ccccc1-c1noc([C@H](C)S(=O)(=O)CCCC#N)n1` are -12% and 2.07.
The like results for `C[C@@H](CCNc1ccncc1F)N1CCN(C)CC1` were, in that order, -4% and 0.8.
For the molecule `Oc1ccc(-c2cncc3nccn23)cc1OC(F)(F)F`, the “% Inhibition” value is given as -6% and the Z score was 1.25.
The like results for `CC1(C)CN(c2nc(-c3ccccn3)nc3sccc23)CCN1` were, in that order, 19% and -3.26.
Consider `Cc1cc(Br)cnc1NC[C@H](C)N1CCN(C)CC1`, for which the “% Inhibition” value was 6% and the Z score was -0.99.
The corresponding values for `O=C(NC1CC(N2CCCCC2)C1)c1cc(-c2ccc3ccccc3c2)[nH]n1` (configuration not stated) are -6% and 0.98.
As to `FC(F)(F)CN1CCC[C@@H]1CNc1ncnc2[nH]ccc12`, the “% Inhibition” value is on record as -12% and the Z score is given as 2.6.
The corresponding values for `C#CCN1CCC(NCC2(N3CCCCC3)CCCC2)CC1` are 3% and -0.62.
The corresponding values for `CN(C)c1cc(C(F)(F)F)nc(N[C@H]2CCN(C(=O)C3CCCC3)C2)n1` are 9% and -1.42.
As for `Cc1ccc2ccccc2c1CN1CCC(NC2CCOCC2)CC1`, the “% Inhibition” value came to 15% and the Z score is on record as -2.6.
The like results for `Cc1cc(N2CCC(NCc3noc(-c4ccco4)n3)CC2)nc(C(C)C)n1` were, in that order, -17% and 2.93.
`CCc1ccc2nc(NC[C@H]3CCCN3C)cc(C)c2c1`: the “% Inhibition” value is -2% and the Z score worked out at 0.32.
On to `C[C@@H](c1ccc(-c2cnc3[nH]cnc3c2)cc1)N1CCCCC1`, for which the “% Inhibition” value is reported as -4% and the Z score is given as 0.72.
Consider `CCc1cc(C(=O)N2CCN(c3ccccc3-c3ccccc3)C(=O)C2)[nH]n1`, for which the “% Inhibition” value came out at 6% and the Z score is given as -1.29.
The like results for `CCNc1ccnc(NCC[C@H]2CN(c3cnn(C)c(=O)c3)CCO2)n1` were, in that order, 6% and -1.26.
As for `Nc1nc2c(c(NCc3csc(-c4cnccn4)n3)n1)CCNCC2`, the “% Inhibition” value worked out at 1% and the Z score is on record as -0.15.
`O[C@H]1CCCN(CCCNc2nc3nonc3nc2N2CCCCCC2)C1`: the “% Inhibition” value was -16% and the Z score stood at 2.72.
The like results for `CC(=O)N(Cc1cncnc1)[C@H]1CCCN(Cc2cccc3c[nH]nc23)CC1` were, in that order, 7% and -1.43.
With `Nc1nc2c(c(NCc3nccn3Cc3ccccc3)n1)CCNCC2`, the “% Inhibition” value is given as 6% and the Z score is on record as -1.06.
Turning to `Cc1ccc2cc(CNc3ccc4c(c3)C(=O)NC4)ccc2n1`, the “% Inhibition” value is on record as -16% and the Z score was determined as 2.75.
The like results for `Cc1cccc(-n2cc([C@H]3NC(C)(C)C(=O)N3CC(C)(C)C)c(C)n2)c1` were, in that order, 5% and -0.81.
Regarding `Nc1nc2c(c(NCc3ccco3)n1)CCN(C(=O)[C@H]1CCCN1)CC2`, the “% Inhibition” value worked out at 9% and the Z score is listed as -1.55.
The like results for `Cc1ccc(F)c(CC(=O)N[C@@H]2C(=O)N(C)Cc3ccccc32)c1` were, in that order, 19% and -3.26.
The like results for `OCc1ccc2c(CN3CCNCC3)c[nH]c2c1` were, in that order, -3% and 0.66.
The like results for `CCOc1ccc(OCC(=O)N(C)C[C@]2(O)CCN(Cc3ccccc3)C2)cc1` were, in that order, 2% and -0.54.
`c1ccc2c(c1)CCCN2CCN1CCC(N2CCCCC2)CC1`: the “% Inhibition” value is listed as -3% and the Z score came out at 0.7.
As to `O=C(CCS(=O)(=O)c1ccccc1)N1CCN2C(COCC2C2CC2)C1` (configuration not stated), the “% Inhibition” value was -2% and the Z score came out at 0.42.
The like results for `COCCN1CCN(C(=O)Nc2ccc(-c3cc4ccccc4[nH]3)cc2)CC1` were, in that order, -9% and 1.62.
The corresponding values for `C[C@@H](CNc1nccc(N(C)C)n1)CN1CCCC1` are 3% and -0.72.
The corresponding values for `Cc1nccn1-c1cccc(NCCCN2CCN(c3ncccn3)CC2)n1` are -3% and 0.5.
`CCN1CCN([C@H]2CCN(c3nc(-c4cccnc4)cs3)C2)CC1`: the “% Inhibition” value worked out at 7% and the Z score is given as -1.52.
The like results for `O=C(NC[C@@H](CN1CCCC1)C1CC1)c1ccnn1CC(F)(F)F` were, in that order, -1% and 0.12.
The corresponding values for `O=c1[nH]c(CN2CCC[C@H](c3c[nH]c4ncccc34)C2)nc2ccc(Cl)cc12` are -4% and 0.77.
The like results for `CCCCNc1cc(N2CCO[C@H](c3cnn(CC)c3)C2)nc(N)n1` were, in that order, -5% and 1.05.
As to `COc1ccccc1-c1csc(C2CCN(CC[C@H]3CCCN3C)CC2)n1`, the “% Inhibition” value is given as 34% and the Z score is given as -5.23.
The like results for `COc1ccc2cc(C(=O)N3CCC4(CC3)C[C@@H](Oc3cnccn3)CCO4)[nH]c2c1` were, in that order, -18% and 3.08.

The values are drawn from ChEMBL document CHEMBL5308541, “MAIP: An Open-Source Tool to Enrich High-Throughput Screening Output and Identify Novel, Druglike Molecules with Antimalarial Activity” (ACS Med Chem Lett, 2023).
